Sequences and labels used below:
B1: infB V744A (protein)
chain: MTDVTIKTLAAERQTSVERLVQQFADAGIRKSADDSVSAQEKQTLIDHLNQKNSGPDKLTLQRKTRSTLNIPGTGGKSKSVQIEVRKKRTFVKRDPQEAERLAAEEQAQREAEEQARREAEESAKREAQQKAEREAAEQAKREAAEQAKREAAEKDKVSNQQDDMTKNAQAEKARREQEAAELKRKAEEEARRKLEEEARRVAEEARRMAEENKWTDNAEPTEDSSDYHVTTSQHARQAEDESDREVEGGRGRGRNAKAARPKKGNKHAESKADREEARAAVRGGKGGKRKGSSLQQGFQKPAQAVNRDVVIGETITVGELANKMAVKGSQVIKAMMKLGAMATINQVIDQETAQLVAEEMGHKVILRRENELEEAVMSDRDTGAAAEPRAPVVTIMGHVDHGKTSLLDYIRSTKVASGEAGGITQHIGAYHVETENGMITFLDTPGHAAFTSMRARGAQATDIVVLVVAADDGVMPQTIEAIQHAKAAQVPVVVAVNKIDKPEADPDRVKNELSQYGILPEEWGGESQFVHVSAKAGTGIDELLDAILLQAEVLELKAVRKGMASGAVIESFLDKGRGPVATVLVREGTLHKGDIVLCGFEYGRVRAMRNELGQEVLEAGPSIPVEILGLSGVPAAGDEVTVVRDEKKAREVALYRQGKFREVKLARQQKSKLENMFANMTEGEVHEVNIVLKADVQGSVEAISDSLLKLSTDEVKVKIIGSGVGGITETDATLAAASNAILAGFNVRADASARKVIEAESLDLRYYSVIYNLIDEVKAAMSGMLSPELKQQIIGLAEVRDVFKSPKFGAIAGCMVTEGVVKRHNPIRVLRDNVVIYEGELESLRRFKDDVNEVRNGMECGIGVKNYNDVRTGDVIEVFEIIEIQRTIA
B2: ilvE I101A (protein)
chain: MTTKKADYIWFNGEMVRWEDAKVHVMSHALHYGTSVFEGIRCYDSHKGPVVFRHREHMQRLHDSAKIYRFPVSQSIDELMEACRDVIRKNNLTSAYIRPLAFVGDVGMGVNPPAGYSTDVIIAAFPWGAYLGAEALEQGIDAMVSSWNRAAPNTIPTAAKAGGNYLSSLLVGSEARRHGYQEGIALDVNGYISEGAGENLFEVKDGVLFTPPFTSSALPGITRDAIIKLAKELGIEVREQVLSRESLYLADEVFMSGTAAEITPVRSVDGIQVGEGRCGPVTKRIQQAFFGLFTGETEDKWGWLDQVNQ
B3: ilvE I101Q (protein)
chain: MTTKKADYIWFNGEMVRWEDAKVHVMSHALHYGTSVFEGIRCYDSHKGPVVFRHREHMQRLHDSAKIYRFPVSQSIDELMEACRDVIRKNNLTSAYIRPLQFVGDVGMGVNPPAGYSTDVIIAAFPWGAYLGAEALEQGIDAMVSSWNRAAPNTIPTAAKAGGNYLSSLLVGSEARRHGYQEGIALDVNGYISEGAGENLFEVKDGVLFTPPFTSSALPGITRDAIIKLAKELGIEVREQVLSRESLYLADEVFMSGTAAEITPVRSVDGIQVGEGRCGPVTKRIQQAFFGLFTGETEDKWGWLDQVNQ
B4: ilvE M255A (protein)
chain: MTTKKADYIWFNGEMVRWEDAKVHVMSHALHYGTSVFEGIRCYDSHKGPVVFRHREHMQRLHDSAKIYRFPVSQSIDELMEACRDVIRKNNLTSAYIRPLIFVGDVGMGVNPPAGYSTDVIIAAFPWGAYLGAEALEQGIDAMVSSWNRAAPNTIPTAAKAGGNYLSSLLVGSEARRHGYQEGIALDVNGYISEGAGENLFEVKDGVLFTPPFTSSALPGITRDAIIKLAKELGIEVREQVLSRESLYLADEVFASGTAAEITPVRSVDGIQVGEGRCGPVTKRIQQAFFGLFTGETEDKWGWLDQVNQ
B5: ilvE L292A (protein)
chain: MTTKKADYIWFNGEMVRWEDAKVHVMSHALHYGTSVFEGIRCYDSHKGPVVFRHREHMQRLHDSAKIYRFPVSQSIDELMEACRDVIRKNNLTSAYIRPLIFVGDVGMGVNPPAGYSTDVIIAAFPWGAYLGAEALEQGIDAMVSSWNRAAPNTIPTAAKAGGNYLSSLLVGSEARRHGYQEGIALDVNGYISEGAGENLFEVKDGVLFTPPFTSSALPGITRDAIIKLAKELGIEVREQVLSRESLYLADEVFMSGTAAEITPVRSVDGIQVGEGRCGPVTKRIQQAFFGAFTGETEDKWGWLDQVNQ
B6: ilvE I101P (protein)
chain: MTTKKADYIWFNGEMVRWEDAKVHVMSHALHYGTSVFEGIRCYDSHKGPVVFRHREHMQRLHDSAKIYRFPVSQSIDELMEACRDVIRKNNLTSAYIRPLPFVGDVGMGVNPPAGYSTDVIIAAFPWGAYLGAEALEQGIDAMVSSWNRAAPNTIPTAAKAGGNYLSSLLVGSEARRHGYQEGIALDVNGYISEGAGENLFEVKDGVLFTPPFTSSALPGITRDAIIKLAKELGIEVREQVLSRESLYLADEVFMSGTAAEITPVRSVDGIQVGEGRCGPVTKRIQQAFFGLFTGETEDKWGWLDQVNQ
B7: ilvE V103P (protein)
chain: MTTKKADYIWFNGEMVRWEDAKVHVMSHALHYGTSVFEGIRCYDSHKGPVVFRHREHMQRLHDSAKIYRFPVSQSIDELMEACRDVIRKNNLTSAYIRPLIFPGDVGMGVNPPAGYSTDVIIAAFPWGAYLGAEALEQGIDAMVSSWNRAAPNTIPTAAKAGGNYLSSLLVGSEARRHGYQEGIALDVNGYISEGAGENLFEVKDGVLFTPPFTSSALPGITRDAIIKLAKELGIEVREQVLSRESLYLADEVFMSGTAAEITPVRSVDGIQVGEGRCGPVTKRIQQAFFGLFTGETEDKWGWLDQVNQ
B8: ilvE I40Q (protein)
chain: MTTKKADYIWFNGEMVRWEDAKVHVMSHALHYGTSVFEGQRCYDSHKGPVVFRHREHMQRLHDSAKIYRFPVSQSIDELMEACRDVIRKNNLTSAYIRPLIFVGDVGMGVNPPAGYSTDVIIAAFPWGAYLGAEALEQGIDAMVSSWNRAAPNTIPTAAKAGGNYLSSLLVGSEARRHGYQEGIALDVNGYISEGAGENLFEVKDGVLFTPPFTSSALPGITRDAIIKLAKELGIEVREQVLSRESLYLADEVFMSGTAAEITPVRSVDGIQVGEGRCGPVTKRIQQAFFGLFTGETEDKWGWLDQVNQ
B9: ilvE L292Q (protein)
chain: MTTKKADYIWFNGEMVRWEDAKVHVMSHALHYGTSVFEGIRCYDSHKGPVVFRHREHMQRLHDSAKIYRFPVSQSIDELMEACRDVIRKNNLTSAYIRPLIFVGDVGMGVNPPAGYSTDVIIAAFPWGAYLGAEALEQGIDAMVSSWNRAAPNTIPTAAKAGGNYLSSLLVGSEARRHGYQEGIALDVNGYISEGAGENLFEVKDGVLFTPPFTSSALPGITRDAIIKLAKELGIEVREQVLSRESLYLADEVFMSGTAAEITPVRSVDGIQVGEGRCGPVTKRIQQAFFGQFTGETEDKWGWLDQVNQ
B10: ilvE V103A (protein)
chain: MTTKKADYIWFNGEMVRWEDAKVHVMSHALHYGTSVFEGIRCYDSHKGPVVFRHREHMQRLHDSAKIYRFPVSQSIDELMEACRDVIRKNNLTSAYIRPLIFAGDVGMGVNPPAGYSTDVIIAAFPWGAYLGAEALEQGIDAMVSSWNRAAPNTIPTAAKAGGNYLSSLLVGSEARRHGYQEGIALDVNGYISEGAGENLFEVKDGVLFTPPFTSSALPGITRDAIIKLAKELGIEVREQVLSRESLYLADEVFMSGTAAEITPVRSVDGIQVGEGRCGPVTKRIQQAFFGLFTGETEDKWGWLDQVNQ
B11: ilvE I40A (protein)
chain: MTTKKADYIWFNGEMVRWEDAKVHVMSHALHYGTSVFEGARCYDSHKGPVVFRHREHMQRLHDSAKIYRFPVSQSIDELMEACRDVIRKNNLTSAYIRPLIFVGDVGMGVNPPAGYSTDVIIAAFPWGAYLGAEALEQGIDAMVSSWNRAAPNTIPTAAKAGGNYLSSLLVGSEARRHGYQEGIALDVNGYISEGAGENLFEVKDGVLFTPPFTSSALPGITRDAIIKLAKELGIEVREQVLSRESLYLADEVFMSGTAAEITPVRSVDGIQVGEGRCGPVTKRIQQAFFGLFTGETEDKWGWLDQVNQ
B12: ilvE V103W (protein)
chain: MTTKKADYIWFNGEMVRWEDAKVHVMSHALHYGTSVFEGIRCYDSHKGPVVFRHREHMQRLHDSAKIYRFPVSQSIDELMEACRDVIRKNNLTSAYIRPLIFWGDVGMGVNPPAGYSTDVIIAAFPWGAYLGAEALEQGIDAMVSSWNRAAPNTIPTAAKAGGNYLSSLLVGSEARRHGYQEGIALDVNGYISEGAGENLFEVKDGVLFTPPFTSSALPGITRDAIIKLAKELGIEVREQVLSRESLYLADEVFMSGTAAEITPVRSVDGIQVGEGRCGPVTKRIQQAFFGLFTGETEDKWGWLDQVNQ
B13: ilvE L292W (protein)
chain: MTTKKADYIWFNGEMVRWEDAKVHVMSHALHYGTSVFEGIRCYDSHKGPVVFRHREHMQRLHDSAKIYRFPVSQSIDELMEACRDVIRKNNLTSAYIRPLIFVGDVGMGVNPPAGYSTDVIIAAFPWGAYLGAEALEQGIDAMVSSWNRAAPNTIPTAAKAGGNYLSSLLVGSEARRHGYQEGIALDVNGYISEGAGENLFEVKDGVLFTPPFTSSALPGITRDAIIKLAKELGIEVREQVLSRESLYLADEVFMSGTAAEITPVRSVDGIQVGEGRCGPVTKRIQQAFFGWFTGETEDKWGWLDQVNQ
B14: ilvE V103Q (protein)
chain: MTTKKADYIWFNGEMVRWEDAKVHVMSHALHYGTSVFEGIRCYDSHKGPVVFRHREHMQRLHDSAKIYRFPVSQSIDELMEACRDVIRKNNLTSAYIRPLIFQGDVGMGVNPPAGYSTDVIIAAFPWGAYLGAEALEQGIDAMVSSWNRAAPNTIPTAAKAGGNYLSSLLVGSEARRHGYQEGIALDVNGYISEGAGENLFEVKDGVLFTPPFTSSALPGITRDAIIKLAKELGIEVREQVLSRESLYLADEVFMSGTAAEITPVRSVDGIQVGEGRCGPVTKRIQQAFFGLFTGETEDKWGWLDQVNQ
B15: ilvE M255Q (protein)
chain: MTTKKADYIWFNGEMVRWEDAKVHVMSHALHYGTSVFEGIRCYDSHKGPVVFRHREHMQRLHDSAKIYRFPVSQSIDELMEACRDVIRKNNLTSAYIRPLIFVGDVGMGVNPPAGYSTDVIIAAFPWGAYLGAEALEQGIDAMVSSWNRAAPNTIPTAAKAGGNYLSSLLVGSEARRHGYQEGIALDVNGYISEGAGENLFEVKDGVLFTPPFTSSALPGITRDAIIKLAKELGIEVREQVLSRESLYLADEVFQSGTAAEITPVRSVDGIQVGEGRCGPVTKRIQQAFFGLFTGETEDKWGWLDQVNQ

± gives the standard deviation of the averaged measurements. Laboratory Escherichia coli strains with one amino-acid change in an essential protein, pooled on minimal glucose agar with carbenicillin or gentamicin at twice the control MIC (plus kanamycin and chloramphenicol for the plasmids), 48 h. Fold change of barcode share against drug-free plates; higher = less susceptible. Active = above 20 in both replicates (the paper's putatively resistant). '<' = one read or none on drug, '>' = one read or none on a drug-free plate. Shares are relative, so most strains fall below 1 when a few take over. Listed are strains with at least 15 reads on both drug-free plates, and hits; most hits rest on fewer reference reads. Replicate rank correlation about 0.5. Edits are read from barcodes.

For one series, the target named is Escherichia coli (laboratory strain). The series is described as follows: barcode share on antibiotic plates over drug-free plates; higher = less susceptible. The conditions noted are these: antibiotic: carbenicillin; 2× MIC (3.1 µg/mL). As for the experimental part: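 A pool of E. coli strains, each edited to carry one amino-acid change in an essential protein, was grown for 48 h on minimal glucose agar with or without antibiotic; strain barcodes were sequenced; mean of two replicates.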
As for B1, the “fold change of barcode share” value was determined as 0.326 ± 0.21.

With B2, the “fold change of barcode share” value is 0.752 ± 0.2.

In the case of B3, the “fold change of barcode share” value is 0.864 ± 0.016.

For the protein B4, the “fold change of barcode share” value was 0.562 ± 0.17.

Regarding B5, the “fold change of barcode share” value is > 22.1 [active].

With B6, the “fold change of barcode share” value was > 46.3 [active].

As for B7, the “fold change of barcode share” value stood at 2.08 ± 1.7.

B8: the “fold change of barcode share” value is 0.503 ± 0.37.

In the case of B9, the “fold change of barcode share” value was 0.467 ± 0.027.

As to B10, the “fold change of barcode share” value stood at 1.31 ± 0.69.

Turning to B11, the “fold change of barcode share” value came to 0.378 ± 0.07.

Regarding B12, the “fold change of barcode share” value was determined as 0.855 ± 0.069.

Turning to B13, the “fold change of barcode share” value stood at 1.09 ± 0.38.

As for B14, the “fold change of barcode share” value turned out to be 3.66 ± 3.9.

Take B15: the “fold change of barcode share” value is 2.64 ± 0.16.

Still in this series, the particulars now being: antibiotic: gentamicin; 2× MIC (MIC 0.45 µg/mL).
On to B1, for which the “fold change of barcode share” value worked out at 0.012 ± 0.0075.

As for B2, the “fold change of barcode share” value amounted to 0.00946 ± 0.0061.

Take B4: the “fold change of barcode share” value came to 0.0107 ± 0.00047.

As to B8, the “fold change of barcode share” value stood at 0.011 ± 0.009.

As to B10, the “fold change of barcode share” value was less than 0.0102.

Regarding B11, the “fold change of barcode share” value is less than 0.00453.

Take B13: the “fold change of barcode share” value was 0.0201 ± 0.0038.

For the protein B15, the “fold change of barcode share” value was 0.0394 ± 0.018.

The values above are taken from the supplement of paper PMC11876631.
